Laboratory results: publication PMC7940485
These are yes or no findings as the source states them, for the method shown. Binding seen in cells or lysates may run through a third protein. Some entries that bind do so weakly or less than the wild type. For some of these results: Sequences can lack the tags named with a protein. Each block holds one molecule with its values, some of them ahead of it.

Sequences of proteins named here, by UniProt entry; tags and fusion partners are left off. A change or cut given only in a name is not applied to a line headed by its entry. Residues count along the entry.
UniProt Q5TA45: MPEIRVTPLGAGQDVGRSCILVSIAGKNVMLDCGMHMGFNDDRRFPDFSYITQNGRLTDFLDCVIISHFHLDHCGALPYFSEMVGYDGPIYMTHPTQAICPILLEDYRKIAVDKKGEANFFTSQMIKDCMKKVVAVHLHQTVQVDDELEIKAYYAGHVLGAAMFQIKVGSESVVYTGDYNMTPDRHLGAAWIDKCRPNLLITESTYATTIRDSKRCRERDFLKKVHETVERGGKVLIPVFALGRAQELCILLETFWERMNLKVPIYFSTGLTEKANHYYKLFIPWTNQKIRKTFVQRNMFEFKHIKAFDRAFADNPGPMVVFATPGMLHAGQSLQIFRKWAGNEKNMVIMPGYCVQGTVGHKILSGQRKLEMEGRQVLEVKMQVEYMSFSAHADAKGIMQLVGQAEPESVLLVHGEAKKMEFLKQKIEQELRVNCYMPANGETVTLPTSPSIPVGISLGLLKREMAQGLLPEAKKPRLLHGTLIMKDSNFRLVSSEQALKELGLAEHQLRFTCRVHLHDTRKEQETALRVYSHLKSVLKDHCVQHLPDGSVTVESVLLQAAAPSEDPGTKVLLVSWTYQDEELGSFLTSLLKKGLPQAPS
GFP-INTS11 (1-493): residues 1-493 of Q5TA45
GFP-INTS11 (1-450): residues 1-450 of Q5TA45
GFP-INTS11 (1-390): residues 1-390 of Q5TA45
UniProt Q9NV88: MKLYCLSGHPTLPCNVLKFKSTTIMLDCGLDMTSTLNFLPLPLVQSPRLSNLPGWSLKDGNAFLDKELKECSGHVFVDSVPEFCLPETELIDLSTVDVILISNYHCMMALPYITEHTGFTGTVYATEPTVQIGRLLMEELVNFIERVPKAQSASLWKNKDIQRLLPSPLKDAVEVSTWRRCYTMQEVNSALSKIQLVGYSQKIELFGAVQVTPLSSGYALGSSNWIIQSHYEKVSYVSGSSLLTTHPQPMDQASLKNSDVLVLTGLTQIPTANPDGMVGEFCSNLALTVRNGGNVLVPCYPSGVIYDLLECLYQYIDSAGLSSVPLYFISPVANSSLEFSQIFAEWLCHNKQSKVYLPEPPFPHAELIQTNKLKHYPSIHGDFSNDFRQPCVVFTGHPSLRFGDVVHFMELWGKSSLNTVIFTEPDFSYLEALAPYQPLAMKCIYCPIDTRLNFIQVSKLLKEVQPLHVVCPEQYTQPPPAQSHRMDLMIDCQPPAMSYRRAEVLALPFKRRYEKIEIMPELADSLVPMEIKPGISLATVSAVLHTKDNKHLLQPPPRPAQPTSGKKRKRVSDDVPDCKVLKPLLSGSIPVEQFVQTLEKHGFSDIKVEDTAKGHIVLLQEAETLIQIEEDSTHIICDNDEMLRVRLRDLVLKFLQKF
UniProt Q96HW7: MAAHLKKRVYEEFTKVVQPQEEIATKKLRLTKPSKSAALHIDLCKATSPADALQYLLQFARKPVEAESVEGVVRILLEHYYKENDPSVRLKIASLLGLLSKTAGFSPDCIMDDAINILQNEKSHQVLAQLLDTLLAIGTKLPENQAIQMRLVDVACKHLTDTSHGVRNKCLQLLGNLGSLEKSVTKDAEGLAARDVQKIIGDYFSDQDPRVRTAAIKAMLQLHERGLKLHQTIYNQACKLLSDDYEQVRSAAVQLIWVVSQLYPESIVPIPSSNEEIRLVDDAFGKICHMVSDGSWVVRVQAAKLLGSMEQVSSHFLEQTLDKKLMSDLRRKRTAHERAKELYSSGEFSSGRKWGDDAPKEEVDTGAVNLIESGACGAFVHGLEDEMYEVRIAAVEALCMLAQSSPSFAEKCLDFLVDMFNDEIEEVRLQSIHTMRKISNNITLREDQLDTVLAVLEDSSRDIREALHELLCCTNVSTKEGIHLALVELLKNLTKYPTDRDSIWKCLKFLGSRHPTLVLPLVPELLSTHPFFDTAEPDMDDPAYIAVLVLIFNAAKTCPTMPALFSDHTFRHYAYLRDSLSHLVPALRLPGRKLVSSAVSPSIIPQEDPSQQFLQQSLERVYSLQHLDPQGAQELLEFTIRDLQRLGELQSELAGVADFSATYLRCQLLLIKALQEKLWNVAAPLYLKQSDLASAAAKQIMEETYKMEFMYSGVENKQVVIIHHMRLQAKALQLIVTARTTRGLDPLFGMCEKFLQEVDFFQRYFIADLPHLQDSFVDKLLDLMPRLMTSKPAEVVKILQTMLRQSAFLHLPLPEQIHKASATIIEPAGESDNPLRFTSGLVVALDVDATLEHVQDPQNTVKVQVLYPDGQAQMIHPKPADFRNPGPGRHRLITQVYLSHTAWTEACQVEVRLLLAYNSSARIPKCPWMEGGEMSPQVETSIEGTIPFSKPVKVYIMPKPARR

How the values were obtained:
[1] = target: T1, GFP-WDR73 full length (stably expressed in podocytes) (human) (UniProt Q6P4I2); assay: co-IP; GFP-IP (anti-GFP beads, 2 h, 4 °C) from lysates of immortalised podocytes stably expressing GFP or GFP-WDR73; lysis buffer 50 mM Tris-HCl pH 7.4, 150 mM NaCl, 1 mM EDTA, 1% Triton X-100; western blot
T1 sequence: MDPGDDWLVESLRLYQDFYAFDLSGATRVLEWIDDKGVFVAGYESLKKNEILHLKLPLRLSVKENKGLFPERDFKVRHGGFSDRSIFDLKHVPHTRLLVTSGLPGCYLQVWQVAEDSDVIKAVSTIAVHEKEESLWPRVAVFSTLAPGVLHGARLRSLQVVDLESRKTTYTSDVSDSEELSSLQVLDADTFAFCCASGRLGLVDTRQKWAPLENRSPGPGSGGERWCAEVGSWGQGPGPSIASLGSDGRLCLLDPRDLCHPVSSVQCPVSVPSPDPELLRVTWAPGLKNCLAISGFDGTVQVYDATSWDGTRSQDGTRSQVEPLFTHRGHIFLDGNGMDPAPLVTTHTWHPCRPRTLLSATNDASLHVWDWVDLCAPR

[2] = target: T2, GFP-WDR73 (transiently transfected in HEK293T) (human) (UniProt Q6P4I2); assay: co-IP; GFP-IP (anti-GFP beads, 2 h, 4 °C) from lysates of HEK293T cells transiently transfected with GFP-tagged constructs; lysis buffer 50 mM Tris-HCl pH 7.4, 150 mM NaCl, 1 mM EDTA, 1% Triton X-100; western blot
T2 sequence: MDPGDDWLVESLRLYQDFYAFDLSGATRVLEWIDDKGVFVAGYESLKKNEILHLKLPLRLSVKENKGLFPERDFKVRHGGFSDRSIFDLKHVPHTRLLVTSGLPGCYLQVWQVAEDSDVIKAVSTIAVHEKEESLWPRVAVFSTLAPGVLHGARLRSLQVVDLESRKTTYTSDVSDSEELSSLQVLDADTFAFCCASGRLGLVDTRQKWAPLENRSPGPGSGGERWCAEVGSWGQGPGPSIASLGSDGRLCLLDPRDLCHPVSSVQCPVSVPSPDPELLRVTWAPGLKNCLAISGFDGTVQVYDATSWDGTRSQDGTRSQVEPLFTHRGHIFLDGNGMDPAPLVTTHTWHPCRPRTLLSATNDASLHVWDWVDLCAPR

GFP-INTS11^p.L509A = GFP-INTS11^p.L509A (UniProt Q5TA45); assay: as above
GFP-INTS11 (1-493) = GFP-INTS11 (1-493) (UniProt Q5TA45); assay: as above
GFP-INTS9 = GFP-INTS9 (UniProt Q9NV88); assay: as above
GFP-INTS11 wild type = GFP-INTS11 wild type (UniProt Q5TA45); assay: as above
GFP-INTS11 (1-450) = GFP-INTS11 (1-450) (UniProt Q5TA45); assay: as above
GFP-INTS11 (1-390) = GFP-INTS11 (1-390) (UniProt Q5TA45); assay: as above
[3] = target: Integrator complex subunit 11 (endogenous, podocytes) (human (endogenous in AB8/13 podocytes)) (UniProt Q5TA45); assay: co-IP; IP of endogenous INTS11 or INTS9 with primary antibody overnight, then Protein-A or Protein-G beads; lysates of podocytes stably expressing GFP or GFP-WDR73, or treated with control or WDR73 siRNA; western blot

Molecule: Integrator complex subunit 9 (endogenous, podocytes) (from UniProt Q9NV88 1-658)
binding [1]: binds

Molecule: Integrator complex subunit 11 (endogenous, podocytes) (from UniProt Q5TA45 1-600)
binding [1]: binds

B1: WDR73 (endogenous, HEK293T) (protein, UniProt Q6P4I2 1-378)
chain: MDPGDDWLVESLRLYQDFYAFDLSGATRVLEWIDDKGVFVAGYESLKKNEILHLKLPLRLSVKENKGLFPERDFKVRHGGFSDRSIFDLKHVPHTRLLVTSGLPGCYLQVWQVAEDSDVIKAVSTIAVHEKEESLWPRVAVFSTLAPGVLHGARLRSLQVVDLESRKTTYTSDVSDSEELSSLQVLDADTFAFCCASGRLGLVDTRQKWAPLENRSPGPGSGGERWCAEVGSWGQGPGPSIASLGSDGRLCLLDPRDLCHPVSSVQCPVSVPSPDPELLRVTWAPGLKNCLAISGFDGTVQVYDATSWDGTRSQDGTRSQVEPLFTHRGHIFLDGNGMDPAPLVTTHTWHPCRPRTLLSATNDASLHVWDWVDLCAPR
binding (GFP-INTS11^p.L509A): binds
binding (GFP-INTS11 (1-493)): binds
binding (GFP-INTS9): binds
binding (GFP-INTS11 wild type): binds
binding (GFP-INTS11 (1-450)): binds
binding (GFP-INTS11 (1-390)): no binding

More lines, now with the values ahead:

binding [2]: no binding
Molecule: INTS4 (from UniProt Q96HW7 1-963)

binding [3]: binds
B2: GFP-WDR73 full length (stably expressed in podocytes) (protein, UniProt Q6P4I2 1-378)
chain: MDPGDDWLVESLRLYQDFYAFDLSGATRVLEWIDDKGVFVAGYESLKKNEILHLKLPLRLSVKENKGLFPERDFKVRHGGFSDRSIFDLKHVPHTRLLVTSGLPGCYLQVWQVAEDSDVIKAVSTIAVHEKEESLWPRVAVFSTLAPGVLHGARLRSLQVVDLESRKTTYTSDVSDSEELSSLQVLDADTFAFCCASGRLGLVDTRQKWAPLENRSPGPGSGGERWCAEVGSWGQGPGPSIASLGSDGRLCLLDPRDLCHPVSSVQCPVSVPSPDPELLRVTWAPGLKNCLAISGFDGTVQVYDATSWDGTRSQDGTRSQVEPLFTHRGHIFLDGNGMDPAPLVTTHTWHPCRPRTLLSATNDASLHVWDWVDLCAPR
